Measurements from PMC6602471.
The other results are listed elsewhere or left out. At the low end of the ranking the order means little.

Molecular target: T1, ELK1 (UniProt P19419)
T1 sequence: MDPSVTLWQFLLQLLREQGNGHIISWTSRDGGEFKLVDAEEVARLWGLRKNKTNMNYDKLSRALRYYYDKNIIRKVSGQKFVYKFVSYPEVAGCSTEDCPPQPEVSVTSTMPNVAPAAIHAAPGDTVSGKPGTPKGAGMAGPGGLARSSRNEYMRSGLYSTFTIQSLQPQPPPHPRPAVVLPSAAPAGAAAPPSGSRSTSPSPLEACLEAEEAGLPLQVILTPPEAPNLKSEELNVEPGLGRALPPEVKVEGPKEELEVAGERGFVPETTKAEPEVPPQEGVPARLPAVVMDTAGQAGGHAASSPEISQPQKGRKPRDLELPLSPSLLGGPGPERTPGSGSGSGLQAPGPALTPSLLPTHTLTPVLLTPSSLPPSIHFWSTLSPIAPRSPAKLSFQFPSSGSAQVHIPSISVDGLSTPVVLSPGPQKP
Assay: custom PBM
Conditions: custom protein-binding microarray; buffer, salt, pH and temperature not stated; high values mean tight binding; double strand, one strand shown

Sequence	binding signal (log fluorescence intensity)
CGGAAGTGTCGTAATCGTCGGATATCCGGTTCTTCTGTCTTGATTCGCTTGACGCTGCTG	12.5
CACAATTTTTACAGTGATGTAGCACGCGTAACTCCTGTCTTGATTCGCTTGACGCTGCTG	8.89
TCCGGCTACCAGCTCCACCCATTTCAGGCCTTGTAGGTCTTGATTCGCTTGACGCTGCTG	8.94
CTGGGACTTGTCCCAACTCTGCCACGTGGGTCGTTTGTCTTGATTCGCTTGACGCTGCTG	8.97
TACTGACTTATATATGCGAATGCACATGAATAGACTGTCTTGATTCGCTTGACGCTGCTG	8.86
GGAAAAACGCCCAGGGTAACACCGGAAGTGGGCTTAGTCTTGATTCGCTTGACGCTGCTG	11.1
CTGTGACTTGACCCAACTCTGCCACGTGGGTCGTTTGTCTTGATTCGCTTGACGCTGCTG	9.01
TCCGGCTACCAGCGCCACCCACTTCAGGCCTTGTAGGTCTTGATTCGCTTGACGCTGCTG	8.91
CAGCATAGGACTTCTCCCCTGAAGCAATTGATAACCGTCTTGATTCGCTTGACGCTGCTG	8.91
GCTGTTGCGGTGCATACCCCACCGGATGTGACCCCGGTCTTGATTCGCTTGACGCTGCTG	10.4
GATTAATTTCTGCCCTTAATCGCACGTGCCATAACAGTCTTGATTCGCTTGACGCTGCTG	8.9
GTGTATAGGATCCCATCCAACACACGTGTTAAAATAGTCTTGATTCGCTTGACGCTGCTG	8.82
TCCGGATACCAGCTCCACCCACTTCAGGCCTTGTAGGTCTTGATTCGCTTGACGCTGCTG	9.07
TGTCTGGTAAGGGAATGTAGATCACGTGAATGAAAAGTCTTGATTCGCTTGACGCTGCTG	8.91
GATTAATTTCTGCCCTTATACGCACGTGCCATAACAGTCTTGATTCGCTTGACGCTGCTG	8.8
TACTGACTTGTATATGCGAATGCACATGAATAGACCGTCTTGATTCGCTTGACGCTGCTG	8.73
TCCGGCTACCAGTTCCACCCACTTCAGGCCTTGTAGGTCTTGATTCGCTTGACGCTGCTG	9.18
CGGAAGTGTCGTAAACGGCGGATATCCGGTTCTTCTGTCTTGATTCGCTTGACGCTGCTG	12.6
TCCGGCTACCAGCTCCACCCACTTCGGGCCTTGTAGGTCTTGATTCGCTTGACGCTGCTG	8.92
CTGGGACTTGACCCAACTCTGCCACGCGGGTCGTTTGTCTTGATTCGCTTGACGCTGCTG	8.85
CAGCATAGTACTTCTTCCCTGAAGCAATTGATAACCGTCTTGATTCGCTTGACGCTGCTG	8.98

Sequence	binding signal (log fluorescence intensity)
CAGCATAGGCCTTCTTCCCTGAAGCAATTGATAACCGTCTTGATTCGCTTGACGCTGCTG	8.86
GATTAATTTCTGCCCTTATTCGGACGTGCCATAACAGTCTTGATTCGCTTGACGCTGCTG	9.13
GGAAAAAGACCCAGGGTAACACCGGAAGTGGGCTTAGTCTTGATTCGCTTGACGCTGCTG	11
TCCGGCTACCAGCTCCACCCACTTCACGCCTTGTAGGTCTTGATTCGCTTGACGCTGCTG	8.85
CACAATTTTTACAGTAATGTAGCACGCCTAACTCCTGTCTTGATTCGCTTGACGCTGCTG	8.87
CGCAATTTTTACAGTAATGTAGCACGCGTAACTCCTGTCTTGATTCGCTTGACGCTGCTG	8.83
TGTCGGGTAAGGGAATGTAGATCACGTGAATAAAAAGTCTTGATTCGCTTGACGCTGCTG	8.89
GGAAAAAGGCCCAGGGTAACACCAGAAGTGGGCTTAGTCTTGATTCGCTTGACGCTGCTG	8.76
GTGTATAGGATCCCATCCAACACACGTGTTAAAAAGGTCTTGATTCGCTTGACGCTGCTG	8.69
CACAATTTTTACAGTAATGTAGCGCGCGTAACTCCTGTCTTGATTCGCTTGACGCTGCTG	8.93
GATTAATCTCTGCCCTTATTCGCACGTGCCATAACAGTCTTGATTCGCTTGACGCTGCTG	8.77
TAAAGGGAAGACGGTTGTGGTACTTCCGGGTATTAAGTCTTGATTCGCTTGACGCTGCTG	12
TCCGGCTACCAGCTCCACCCACTTCAGGCCTTGTATGTCTTGATTCGCTTGACGCTGCTG	8.82
CTGGTACTTGACCCAACTCTGCCACGTGGGTCGTTTGTCTTGATTCGCTTGACGCTGCTG	8.96
CGGAAGTGTCGTAAACTTCGGATATCCGGTTCTTCTGTCTTGATTCGCTTGACGCTGCTG	12.3
CACAATTTATACAGTAATGTAGCACGCGTAACTCCTGTCTTGATTCGCTTGACGCTGCTG	8.92
GTGTATAGGATCCCATCCAACAGACGTGTTAAAATGGTCTTGATTCGCTTGACGCTGCTG	8.71
CGGAAGTGTCGTAAACGTCGGATAACCGGTTCTTCTGTCTTGATTCGCTTGACGCTGCTG	8.9
CTGGGACTTGACCCAACTCTGCCACGTGGATCGTTTGTCTTGATTCGCTTGACGCTGCTG	8.8
TCCGGCTACCGGCTCCACCCACTTCAGGCCTTGTAGGTCTTGATTCGCTTGACGCTGCTG	11.6
GGAAAAAGGCGCAGGGTAACACCGGAAGTGGGCTTAGTCTTGATTCGCTTGACGCTGCTG	11

Sequence	binding signal (log fluorescence intensity)
GTGTATAGGATCCCATCCAACACACGTGGTAAAATGGTCTTGATTCGCTTGACGCTGCTG	8.97
CTGGGACTTGACCCAACTCTGCCACCTGGGTCGTTTGTCTTGATTCGCTTGACGCTGCTG	8.8
GGAAAAAGGCCCAGGGTAACACCGGAAGTGGGCTTGGTCTTGATTCGCTTGACGCTGCTG	11
CTGGGACTTGACCCAACTCTGCCACGTGGGTCGTTAGTCTTGATTCGCTTGACGCTGCTG	8.99
CAGCATAGGACTTCTTCCCTGAAGCATTTGATAACCGTCTTGATTCGCTTGACGCTGCTG	8.94
GATTAATTTCAGCCCTTATTCGCACGTGCCATAACAGTCTTGATTCGCTTGACGCTGCTG	8.95
CGGAAGTGTCGTAAACGTCGGATATCCGGTTCTTGTGTCTTGATTCGCTTGACGCTGCTG	12.6
TGTCGGGTAAGGGAATGTAGATCACGTGAATCAAAAGTCTTGATTCGCTTGACGCTGCTG	8.84
TACTGACTTATCTATGCGAATGCACATGAATAGACCGTCTTGATTCGCTTGACGCTGCTG	8.81
CACGATTTTTACAGTAATGTAGCACGCGTAACTCCTGTCTTGATTCGCTTGACGCTGCTG	8.88
CACAATTTTTACAGAAATGTAGCACGCGTAACTCCTGTCTTGATTCGCTTGACGCTGCTG	8.81
CGGAAGTGTCGTAAACGTCGGATATCCGGTTGTTCTGTCTTGATTCGCTTGACGCTGCTG	12.5
TAAAGGGAAGACGGTTGGGGTAGTTCCGGGTATTAAGTCTTGATTCGCTTGACGCTGCTG	11.4
TCCGGCTACCAGCTCCACTCACTTCAGGCCTTGTAGGTCTTGATTCGCTTGACGCTGCTG	8.9
TAAATGGAAGACGGTTGTGGTAGTTCCGGGTATTAAGTCTTGATTCGCTTGACGCTGCTG	11.2
GGAAAAAGGCCCAGGGTAACACCGCAAGTGGGCTTAGTCTTGATTCGCTTGACGCTGCTG	8.91
GCTGCTGCGGTGCATACCCCACCGGATGCGACCCCGGTCTTGATTCGCTTGACGCTGCTG	9.88
CACAATTTTTACAGTAATGTATCACGCGTAACTCCTGTCTTGATTCGCTTGACGCTGCTG	8.71
TACTGACTTATAGATGCGAATGCACATGAATAGACCGTCTTGATTCGCTTGACGCTGCTG	8.81
CAGGGACTTGACCCAACTCTGCCACGTGGGTCGTTTGTCTTGATTCGCTTGACGCTGCTG	8.86
GTGTATAGGATCCCATCCAACACACGTGTTAAGATGGTCTTGATTCGCTTGACGCTGCTG	8.88

Sequence	binding signal (log fluorescence intensity)
CGGCATAGGACTTCTTCCCTGAAGCAATTGATAACCGTCTTGATTCGCTTGACGCTGCTG	8.89
TGTCGGGTAAGGGAATGTAGATCACGTCAATGAAAAGTCTTGATTCGCTTGACGCTGCTG	8.87
CAGCATAGGACTTCTTCCCTGAAGCAATTGGTAACCGTCTTGATTCGCTTGACGCTGCTG	8.8
TCCGGCTACCAGCTCCACCCACTTCAGGCCTTGTTGGTCTTGATTCGCTTGACGCTGCTG	8.77
GTGAATAGGATCCCATCCAACACACGTGTTAAAATGGTCTTGATTCGCTTGACGCTGCTG	8.94
TAAAGGGAAAACGGTTGTGGTAGTTCCGGGTATTAAGTCTTGATTCGCTTGACGCTGCTG	11.2
CGTCGGGTAAGGGAATGTAGATCACGTGAATGAAAAGTCTTGATTCGCTTGACGCTGCTG	9
GTGTATAGGATCACATCCAACACACGTGTTAAAATGGTCTTGATTCGCTTGACGCTGCTG	8.82
GAGTAATTTCTGCCCTTATTCGCACGTGCCATAACAGTCTTGATTCGCTTGACGCTGCTG	8.78
GATTAAGTTCTGCCCTTATTCGCACGTGCCATAACAGTCTTGATTCGCTTGACGCTGCTG	8.84
CGGAAGTGTCGTAAACGTCGGATACCCGGTTCTTCTGTCTTGATTCGCTTGACGCTGCTG	9.29
TAAAGGGAAGACGGTTATGGTAGTTCCGGGTATTAAGTCTTGATTCGCTTGACGCTGCTG	11.2
CGGATGTGTCGTAAACGTCGGATATCCGGTTCTTCTGTCTTGATTCGCTTGACGCTGCTG	12.2
CAGCATAGGACTTCTTCCCTGAAGCAATTGATAAGCGTCTTGATTCGCTTGACGCTGCTG	8.86
ATGGGACTTGACCCAACTCTGCCACGTGGGTCGTTTGTCTTGATTCGCTTGACGCTGCTG	8.96
TGTCGGGTAAGGGAATGTAGATCACGTGAATTAAAAGTCTTGATTCGCTTGACGCTGCTG	8.81
TAAAGGGAAGACGGTTGTGGTAGTTCCGGCTATTAAGTCTTGATTCGCTTGACGCTGCTG	11.3
CGGAAGTGTCGTGAACGTCGGATATCCGGTTCTTCTGTCTTGATTCGCTTGACGCTGCTG	11.8
